This is one part of the list. At the low end of the ranking the order means little.
Target: SIX1-Q177R homeodomain (UniProt Q15475)
Test: universal protein binding microarray
Settings: Universal all-10-mer PBM (8x60K, AMADID 030236), 300 nM GST-tagged protein, Alexa Fluor 488 anti-GST; buffer, salt, pH and temperature not stated; high values mean tight binding; most listed sequences are background and not binding sites; double strand, one strand shown

Sequence	binding signal
TCCTAAGA	-0.188 E-score
GGGCAGCA	-0.0895 E-score
ACGGTGAT	0.0788 E-score
CACCCCTC	0.393 E-score
AGAAACCA	-0.109 E-score
CGGATTTA	0.102 E-score
CGCTCACC	-0.091 E-score
CGAACGGA	0.21 E-score
CAAAGAGC	-0.15 E-score
AGCGTAAG	-0.182 E-score
ATGCCATG	-0.267 E-score
AACGAAAG	-0.0673 E-score
AAGTTAAT	-0.158 E-score
GTGGGTCA	0.166 E-score
GGGGAACC	0.113 E-score
GCCTCGCA	-0.152 E-score
AACAAAGT	-0.0538 E-score
GGTAGTCA	-0.0119 E-score
CTGTATCC	0.0762 E-score
GATTATAA	-0.14 E-score
CACCCCGG	0.338 E-score
AATTGTCC	-0.226 E-score

Sequence	binding signal
CCGTCCCG	-0.225 E-score
CCAAGGGA	-0.0974 E-score
TGGATCCA	-0.0177 E-score
AGAGCCAT	-0.142 E-score
CGGTGGAA	-0.0693 E-score
AGGCGAAC	-0.00716 E-score
GACTTATC	-0.233 E-score
AAGCGTAT	-0.172 E-score
CGTTCGAA	-0.0607 E-score
AGTAACGA	-0.14 E-score
CGCAATGC	-0.00698 E-score
CAGGGCGC	-0.0746 E-score
GGTCAAAA	0.0649 E-score
GCTTCTAA	-0.153 E-score
CCGGTTGA	0.0296 E-score
TAGGCGGA	-0.0265 E-score
CCAAATAA	-0.035 E-score
GAGATCCC	0.143 E-score
CGCACTGC	-0.0649 E-score
GCAATACC	0.166 E-score
CGCGGGAA	-0.0378 E-score
GCACTCGA	0.0224 E-score

Sequence	binding signal
CCGCATCA	0.0678 E-score
ATTCGGGA	-0.0598 E-score
CCCGGGAC	0.106 E-score
AGCCACTA	-0.231 E-score
GTCTAACA	0.204 E-score
CACCCCAG	0.36 E-score
TATTAAAA	0.00166 E-score
CGTTGCAC	0.0413 E-score
GAGGGCTA	-0.0107 E-score
ACAACGTA	-0.0795 E-score
CATGACCG	-0.0178 E-score
AGTTTCAC	-0.0336 E-score
CACCGTAG	0.255 E-score
GACAGTGA	-0.0177 E-score
AGACTCAA	0.0888 E-score
CGGAGAAC	0.00618 E-score
ATATTGTG	0.0273 E-score
ACGTGATA	0.0673 E-score
CGTGGCCC	-0.122 E-score
GAGAGGTA	0.114 E-score
ATGTGGGC	-0.187 E-score
GCTATCAC	-0.0277 E-score

Sequence	binding signal
CTGCTGGA	-0.212 E-score
AAAAAAAA	-0.0314 E-score
GCACCACA	0.154 E-score
ACCGGAAA	0.0805 E-score
ATACCAAC	0.163 E-score
ACCGGTGA	0.0601 E-score
CCGTTAAC	-0.068 E-score
AAGGACTA	-0.229 E-score
ACGTTGAC	0.0452 E-score
CAAATAAC	-0.0463 E-score
AGGTCATC	-0.04 E-score
ACCTCTTA	0.0413 E-score
AATACGCA	-0.138 E-score
CCTGGCTA	-0.139 E-score
TCACGCAA	-0.188 E-score
ACCATCGT	-0.133 E-score
GTAAAAAC	-0.0026 E-score
ATCATGCA	-0.0868 E-score
GTTTTACA	0.0695 E-score
AGGGTCAA	0.0776 E-score

From publication PMC10668032
